Here are results for three compounds from PubChem BioAssay (EPA / NIEHS).

For some assays here: The hits were mostly taken out for another list; the other results follow. Inconclusive results are not listed. The entries are a selection whose mix differs from that of the whole data set. Active and inactive are the calls of the source. How the source made its calls, unless noted: active means hit-call score of the fitted dose curve at least 0.9, where 1 is the maximum; inactive means score below 0.9.

Read-out in experiment [1]: Matrix Metallopeptidase 1 (MMP1), MMP1 (gene 4312)
The experiment is described as follows: BSK_BE3C_MMP1: BioMAP Diversity Plus: BE3C Assay for Matrix Metallopeptidase 1 (MMP1) Biomarker Activity (AID 2283024). The note with it: actives raise or lower the signal; primary human bronchial epithelial cells. An outline of the steps: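 Primary human bronchial epithelial cells were dosed with test chemicals, and MMP1 levels were measured by ELISA 24 h later. Data were fitted bidirectionally against DMSO as the negative control and activity baseline.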

Read-out in experiment [2]: Interleukin-8 (IL8), CXCL8 (gene 3576)
The experiment is described as follows: BSK_CASM3C_IL8: BioMAP Diversity Plus: CASM3C Assay for Interleukin-8 (IL8) Biomarker Activity (AID 2283042).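 Further: IL-8 protein level quantified by ELISA.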 The note with it: actives raise or lower the signal; primary human coronary artery smooth muscle cells.

Experiment [3] in a line: BSK_SAg_SRB: Viability Assessment in the BioMAP Diversity Plus: SAg Assay (AID 2283096).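 Further: cells read one day after compound addition; hits may be either gain or loss of signal compared with DMSO.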 The note with it: primary human HUVEC with PBMC. An outline of the steps: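 Total protein by sulforhodamine B staining, 24 h after dosing, in HUVEC–PBMC co-culture; DMSO-referenced bidirectional fitting.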
The target of experiment [4] is Estrogen receptor (Homo sapiens) + Estrogen receptor beta (Homo sapiens) (UniProt P03372+Q92731). The experiment is described as follows: OT_ER_ERaERb_1440: Odyssey Thera (OT) 24-hour HEK293T Protein-Complementation Assay for Estrogen Receptor-alpha/-beta Homodimer (AID 2283356; active means hit-call score of the fitted dose curve at least 0.9, where 1 is the maximum;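 further: heteromer of ER alpha and ER beta binding domains; hits raise reporter fluorescence and both agonists and antagonists give an increase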). A digest of the protocol: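 Heterodimerisation of ERα (aa 310-547) and ERβ (aa 263-489) ligand binding domains was tracked as fluorescence gain in stably transfected HEK293T cells following 24 h dosing, normalised to DMSO controls.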

Read-out in experiment [5]: ABC Transporter (ABCB1), ABCB1 (gene 5243)
The experiment is described as follows: CLD_ABCB1_48hr: CellzDirect (CLD) Gene Expression Assay for ABC Transporter (ABCB1) at 48 hours (AID 2283695; active means hit-call score of the fitted dose curve at least 0.9, where 1 is the maximum). An outline of the steps: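 Primary human hepatocytes from two donor preparations dosed daily on two consecutive days with 0.2% DMSO vehicle. Harvest at 48 h. ABCB1 mRNA quantified by qNPA with chemiluminescence and fitted for gain of signal versus DMSO.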

Experiment [6] addresses human Thyroid Receptor alpha (THRa1), THRA (gene 7067) (UniProt P10827). The experiment is described as follows: ATG_THRa1_TRANS: Attagene TRANS-FACTORIAL HepG2 Assay for human Thyroid Receptor alpha (THRa1) (AID 2283014; active means hit-call score of the fitted dose curve at least 0.9, where 1 is the maximum). An outline of the steps: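 First, HepG2 cells receive multiple GAL4-UAS reporter units and the chimeric receptor. They are then dosed for 24 h, after which RNA is reverse-transcribed, amplified, labelled, HpaI-cut and sized by capillary electrophoresis; gain relative to DMSO is scored.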

Read-out in experiment [7]: Early growth response protein 1 (EGR1) transcription factor, EGR1 (gene 1958)
The experiment is described as follows: LTEA_HepaRG_EGR1: Life Technologies and Expression Analysis (LTEA) Assay for Early growth response protein 1 (EGR1) transcription factor using HepaRG (AID 2283490). The note with it: actives raise or lower the signal; mRNA level, 48 h. An outline of the steps:
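Read-out is EGR1 mRNA level by qRT-PCR, normalized to three housekeeping genes and analysed for gain or loss of signal against 0.5% DMSO. Source cells: human HepaRG, treated 48 h at up to 100 uM in half-log dilutions.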

Read-out in experiment [8]: Ezrin (EZR), EZR (gene 7430)
The experiment is described as follows: LTEA_HepaRG_EZR: Life Technologies and Expression Analysis (LTEA) Assay for Ezrin (EZR) using HepaRG (AID 2283491). The note with it: actives raise or lower the signal; mRNA level, 48 h.

Read-out in experiment [9]: Interleukin 6 (IL6), IL6 (gene 3569)
The experiment is described as follows: LTEA_HepaRG_IL6: Life Technologies and Expression Analysis (LTEA) Assay for Interleukin 6 (IL6) using HepaRG (AID 2283509). The note with it: actives raise or lower the signal; mRNA level, 48 h. An outline of the steps: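 HepaRG, ~100,000 cells/well, 48 h pre-culture; serum-free induction medium; cmpd 8-pt half-log from 100 uM, 0.5% DMSO, duplicate, 48 h. Lysis in RLT, TaqMan qRT-PCR; gain or loss vs DMSO.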

The nature of experiment [10]: CPHEA_Stoker_NIS_Cytotoxicity: Cytotoxicity Assessment for CPHEA's Radioactive Iodide Uptake (RAIU) Assay for Sodium/Iodide Symporter (NIS) Inhibition, Stoker and Laws Labs (AID 2283897; active means hit-call score of the fitted dose curve at least 0.9, where 1 is the maximum). A digest of the protocol: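 hNIS-HEK293T-EPA human kidney cells were exposed for 2 hours at room temperature to test chemicals (0.001–100uM, 0.5% final DMSO) in HEPES-buffered HBSS, pH 7.4. Viability was read as ATP content by luciferase bioluminescence, loss of signal versus DMSO.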

Read-out in experiment [11]: Pselectin, SELP (gene 6403)
The experiment is described as follows: BSK_4H_Pselectin: BioMAP Diversity Plus: 4H Assay for Pselectin Biomarker Activity (AID 2283026). The note with it: actives raise or lower the signal; primary human endothelial cells (HUVEC). An outline of the steps: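 Primary human umbilical vein endothelial cells were exposed to test chemical for 24 h, then cell-surface P-selectin was quantified by ELISA. Activity was fitted bidirectionally against DMSO as negative control and baseline.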

Experiment [12] can be described thus: BSK_BE3C_SRB: Viability Assessment in the BioMAP Diversity Plus: BE3C Assay (AID 2283028). The note with it: primary human bronchial epithelial cells. A digest of the protocol:
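Overt cytotoxicity was assessed as total protein in confluent human primary bronchial epithelial cultures 24 h after chemical addition, using 0.1% sulforhodamine B staining read at 560 nm.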

The nature of experiment [13]: BSK_hDFCGF_Proliferation: Cell Proliferation Assessment in the BioMAP Diversity Plus: hDFCGF Assay (AID 2283059).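 Further: curves fitted for both rise and fall of signal versus DMSO baseline.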 The note with it: primary human foreskin fibroblasts. An outline of the steps:
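Sub-confluent human foreskin fibroblast cultures receive test chemical […]. Relative cell number is quantified by sulforhodamine B staining (0.1%, after 10% TCA fixation) at 560 nm, with bidirectional fitting referenced to DMSO.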

Experiment [14] can be described thus: CEETOX_H295R_OHPREG: CeeTox H295R High-throughput Steroidogenesis Assay for OH-Pregnenolone (OHPREG) (AID 2283434). The note with it: actives raise or lower the signal.

Chain of UniProt P03372 (P03372 whole entry, looked up, the tested form may be a part): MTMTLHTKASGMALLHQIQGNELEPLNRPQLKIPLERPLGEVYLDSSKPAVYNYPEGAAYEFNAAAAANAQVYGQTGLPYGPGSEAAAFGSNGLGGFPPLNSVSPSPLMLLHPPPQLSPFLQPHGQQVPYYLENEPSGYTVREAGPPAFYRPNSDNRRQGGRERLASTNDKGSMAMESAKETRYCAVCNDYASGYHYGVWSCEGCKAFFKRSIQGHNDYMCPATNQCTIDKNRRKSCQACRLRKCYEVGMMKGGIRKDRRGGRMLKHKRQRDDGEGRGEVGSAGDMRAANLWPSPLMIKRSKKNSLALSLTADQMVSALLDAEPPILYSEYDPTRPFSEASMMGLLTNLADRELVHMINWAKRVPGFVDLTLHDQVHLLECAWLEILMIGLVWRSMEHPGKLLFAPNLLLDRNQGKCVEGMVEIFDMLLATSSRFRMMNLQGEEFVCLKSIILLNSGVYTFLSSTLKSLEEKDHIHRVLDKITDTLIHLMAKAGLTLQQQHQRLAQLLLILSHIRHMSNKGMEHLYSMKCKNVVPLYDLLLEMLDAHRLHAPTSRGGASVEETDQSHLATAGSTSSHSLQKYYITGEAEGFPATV
Chain of UniProt P03372 (Q92731 whole entry, looked up, the tested form may be a part): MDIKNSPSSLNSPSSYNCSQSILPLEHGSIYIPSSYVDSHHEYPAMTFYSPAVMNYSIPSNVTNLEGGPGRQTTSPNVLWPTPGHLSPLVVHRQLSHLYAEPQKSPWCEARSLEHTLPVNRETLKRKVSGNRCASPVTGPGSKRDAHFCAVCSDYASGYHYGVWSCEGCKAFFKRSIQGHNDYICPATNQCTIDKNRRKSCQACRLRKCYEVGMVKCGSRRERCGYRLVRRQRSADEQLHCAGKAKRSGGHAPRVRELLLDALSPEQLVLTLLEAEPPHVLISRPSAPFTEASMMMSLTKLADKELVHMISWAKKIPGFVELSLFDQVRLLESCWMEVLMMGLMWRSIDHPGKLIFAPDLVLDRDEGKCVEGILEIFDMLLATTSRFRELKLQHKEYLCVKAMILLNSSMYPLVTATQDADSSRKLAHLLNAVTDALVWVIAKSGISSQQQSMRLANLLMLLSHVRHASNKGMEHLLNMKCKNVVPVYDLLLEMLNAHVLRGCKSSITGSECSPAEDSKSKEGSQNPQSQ
Chain of UniProt P10827 (P10827 whole entry, looked up, the tested form may be a part): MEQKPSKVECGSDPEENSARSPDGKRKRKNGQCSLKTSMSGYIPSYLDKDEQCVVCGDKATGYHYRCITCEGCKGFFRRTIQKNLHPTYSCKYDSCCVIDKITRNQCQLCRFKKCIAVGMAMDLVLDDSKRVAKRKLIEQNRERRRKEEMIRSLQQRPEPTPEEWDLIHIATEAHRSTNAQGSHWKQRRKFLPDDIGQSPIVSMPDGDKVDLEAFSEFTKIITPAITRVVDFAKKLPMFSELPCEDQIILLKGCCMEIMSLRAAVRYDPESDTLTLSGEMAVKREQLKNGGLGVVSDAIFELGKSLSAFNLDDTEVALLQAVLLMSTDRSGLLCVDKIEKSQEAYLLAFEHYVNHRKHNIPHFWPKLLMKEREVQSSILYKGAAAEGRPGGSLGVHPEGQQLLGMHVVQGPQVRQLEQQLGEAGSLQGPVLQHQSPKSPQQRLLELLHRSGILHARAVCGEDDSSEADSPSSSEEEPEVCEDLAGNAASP

Regarding `CCCCNC(=O)OCC#CI`, the AC50 (usually the concentration at which the activity in the assay is half-maximal) in experiment [1] was active: 33.1 µM; in experiment [2], active: 36.7 µM; in [3] it was active: 27.2 µM; in [4] it was active: 11.9 µM. Moreover, the result in experiment [5] was inactive.
Turning to `O=C(Nc1ccccc1)Nc1cnns1`, the result in experiment [6], in [7], in experiment [9] and in experiment [10] was inactive. Further, the AC50 in [8] was active: 9.92 µM.
Consider `Oc1c(Br)cc(Br)cc1Br`, for which the outcome in [11], in [12] and in experiment [14] was inactive. Moreover, the AC50 in [13] was active: 31.1 µM.
